In PMC9911399, “Two distinct binding modes provide the RNA-binding protein RbFox with extraordinary sequence specificity” one finds binding signal data, which are given here for 20 molecules.

The chains are these.
B1: GAGUCAG (DNA:RNA)
RNA: GGGAGACCGGAAUUCAGAUUGUCCGAGUCAGUUAAAUCCCGUCGUAGCCACCA
DNA 1: CAATCTGAATTCCGGTCTCCC
DNA 2: TGGTGGCTACGACGGGATT
B2: CUUGUAU (DNA:RNA)
RNA: B1 RNA with G25C, A26U, G27U, U28G, C29U, G31U
DNA 1: CAATCTGAATTCCGGTCTCCC
DNA 2: TGGTGGCTACGACGGGATT
B3: UAGGCUC (DNA:RNA)
RNA: B1 RNA with G25U, U28G, A30U, G31C
DNA 1: CAATCTGAATTCCGGTCTCCC
DNA 2: TGGTGGCTACGACGGGATT
B4: GAUCUCU (DNA:RNA)
RNA: B1 RNA with G27U, U28C, C29U, A30C, G31U
DNA 1: CAATCTGAATTCCGGTCTCCC
DNA 2: TGGTGGCTACGACGGGATT
B5: CAGCGGG (DNA:RNA)
RNA: B1 RNA with G25C, U28C, C29G, A30G
DNA 1: CAATCTGAATTCCGGTCTCCC
DNA 2: TGGTGGCTACGACGGGATT
B6: GGCGGUC (DNA:RNA)
RNA: B1 RNA with A26G, G27C, U28G, C29G, A30U, G31C
DNA 1: CAATCTGAATTCCGGTCTCCC
DNA 2: TGGTGGCTACGACGGGATT
B7: GGGGUGA (DNA:RNA)
RNA: B1 RNA with A26G, U28G, C29U, A30G, G31A
DNA 1: CAATCTGAATTCCGGTCTCCC
DNA 2: TGGTGGCTACGACGGGATT
B8: ACGGGUA (DNA:RNA)
RNA: B1 RNA with G25A, A26C, U28G, C29G, A30U, G31A
DNA 1: CAATCTGAATTCCGGTCTCCC
DNA 2: TGGTGGCTACGACGGGATT
B9: CAAACCA (DNA:RNA)
RNA: B1 RNA with G25C, G27A, U28A, A30C, G31A
DNA 1: CAATCTGAATTCCGGTCTCCC
DNA 2: TGGTGGCTACGACGGGATT
B10: AGUAUUC (DNA:RNA)
RNA: GGGAGACCGGAAUUCAGAUUGUCCAGUAUUCUUAAAUCCCGUCGUAGCCACCA
DNA 1: CAATCTGAATTCCGGTCTCCC
DNA 2: TGGTGGCTACGACGGGATT
B11: CAGUCAA (DNA:RNA)
RNA: B1 RNA with G25C, G31A
DNA 1: CAATCTGAATTCCGGTCTCCC
DNA 2: TGGTGGCTACGACGGGATT
B12: GCCAGUU (DNA:RNA)
RNA: B10 RNA with A25G, G26C, U27C, U29G, C31U
DNA 1: CAATCTGAATTCCGGTCTCCC
DNA 2: TGGTGGCTACGACGGGATT
B13: GUAAAGU (DNA:RNA)
RNA: B10 RNA with A25G, G26U, U27A, U29A, U30G, C31U
DNA 1: CAATCTGAATTCCGGTCTCCC
DNA 2: TGGTGGCTACGACGGGATT
B14: GAUUUGA (DNA:RNA)
RNA: B1 RNA with G27U, C29U, A30G, G31A
DNA 1: CAATCTGAATTCCGGTCTCCC
DNA 2: TGGTGGCTACGACGGGATT
B15: UGUUCGA (DNA:RNA)
RNA: B10 RNA with A25U, A28U, U29C, U30G, C31A
DNA 1: CAATCTGAATTCCGGTCTCCC
DNA 2: TGGTGGCTACGACGGGATT
B16: CAACACG (DNA:RNA)
RNA: B1 RNA with G25C, G27A, U28C, C29A, A30C
DNA 1: CAATCTGAATTCCGGTCTCCC
DNA 2: TGGTGGCTACGACGGGATT
B17: GCUUCAC (DNA:RNA)
RNA: B1 RNA with A26C, G27U, G31C
DNA 1: CAATCTGAATTCCGGTCTCCC
DNA 2: TGGTGGCTACGACGGGATT
B18: UAAAUCU (DNA:RNA)
RNA: B10 RNA with A25U, G26A, U27A, U30C, C31U
DNA 1: CAATCTGAATTCCGGTCTCCC
DNA 2: TGGTGGCTACGACGGGATT
B19: UCAGUUC (DNA:RNA)
RNA: B10 RNA with A25U, G26C, U27A, A28G
DNA 1: CAATCTGAATTCCGGTCTCCC
DNA 2: TGGTGGCTACGACGGGATT
B20: AAGCAUA (DNA:RNA)
RNA: B10 RNA with G26A, U27G, A28C, U29A, C31A
DNA 1: CAATCTGAATTCCGGTCTCCC
DNA 2: TGGTGGCTACGACGGGATT

Substitutions are numbered along the chain they refer to; changes in the protein carry UniProt numbers. This is one part of the list.

The target in this assay is T1, RBFOX1 RRM RbFoxmut (Fox-RRM*) (Homo sapiens, UniProt Q9NWB1 109-208, R118D;E147R;N151S;E152T).
T1 sequence: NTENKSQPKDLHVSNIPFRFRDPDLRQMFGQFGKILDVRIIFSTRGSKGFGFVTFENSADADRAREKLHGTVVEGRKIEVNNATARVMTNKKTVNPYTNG
As to the kind of experiment: EMSA; HiTS-Eq, 1 nM pool, 10 min; buffer printed only for the single-RNA assays: 10 mM Tris pH 7.5, 150 mM NaCl, 3.4 mM EDTA, 0.001% NP-40, 30 C. The note with it: tags: His6 N-terminal (pET28a); label: 5' 32P. The procedure, abridged: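 Purified wild-type or mutant RbFox RRM at increasing concentrations was equilibrated with 1 nM of 5′-radiolabelled RNA carrying 7 randomized nucleotides for 10 min in 50 µL. Unbound RNA was separated by 8% native PAGE and sequenced. Relative association constants came from read-count changes of each RNA species compared with the control reaction, normalised to the cognate motif.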
A general note: In EMSA bound probe runs differently from free probe, usually more slowly.
With B1, the binding signal was 0.116 KA relative to UGCAUGU. B2: the binding signal is 0.151 KA relative to UGCAUGU. Regarding B3, the binding signal is 0.0529 KA relative to UGCAUGU.

In the case of B4, the binding signal was 0.0673 KA relative to UGCAUGU. The result for B5 reads 0.0632 KA relative to UGCAUGU; that for B6, 0.177 KA relative to UGCAUGU; that for B7, 0.168 KA relative to UGCAUGU. As for B8, the figure is 0.16 KA relative to UGCAUGU. The result for B9 reads 0.106 KA relative to UGCAUGU; that for B10, 0.1 KA relative to UGCAUGU. For the molecule B11, the binding signal was 0.0766 KA relative to UGCAUGU. As for B12, the figure is 0.0611 KA relative to UGCAUGU; as for B13, 0.101 KA relative to UGCAUGU; as for B14, 0.0575 KA relative to UGCAUGU. The result for B15 reads 0.203 KA relative to UGCAUGU; that for B16, 0.0902 KA relative to UGCAUGU; that for B17, 0.0851 KA relative to UGCAUGU. Consider B18, for which the binding signal was 0.0407 KA relative to UGCAUGU. The result for B19 reads 0.0984 KA relative to UGCAUGU; that for B20, 0.0958 KA relative to UGCAUGU.
